Measured values reported in publication PMC6919601, “Identification of Plasmodium dipeptidyl aminopeptidase allosteric inhibitors by high throughput screening” (PLoS ONE, 2019).
Hit rate of the full screen: of about 110,000 compounds, about 230 (0.21%) showed an effect of 50% or more. The list shows a part of the results.

target: DPAP1 (Plasmodium falciparum, UniProt Q8IIJ9); assay: primary screen, percent inhibition; read by cleavage of a fluorogenic dipeptide substrate; higher = more effect of the substance; set-up: species or system P. falciparum D10 trophozoite lysates; single well
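Further: 30 min substrate incubation versus DMSO and 10 µM JCP410 controls.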

DPAP1, sequence (Q8IIJ9 whole entry, looked up): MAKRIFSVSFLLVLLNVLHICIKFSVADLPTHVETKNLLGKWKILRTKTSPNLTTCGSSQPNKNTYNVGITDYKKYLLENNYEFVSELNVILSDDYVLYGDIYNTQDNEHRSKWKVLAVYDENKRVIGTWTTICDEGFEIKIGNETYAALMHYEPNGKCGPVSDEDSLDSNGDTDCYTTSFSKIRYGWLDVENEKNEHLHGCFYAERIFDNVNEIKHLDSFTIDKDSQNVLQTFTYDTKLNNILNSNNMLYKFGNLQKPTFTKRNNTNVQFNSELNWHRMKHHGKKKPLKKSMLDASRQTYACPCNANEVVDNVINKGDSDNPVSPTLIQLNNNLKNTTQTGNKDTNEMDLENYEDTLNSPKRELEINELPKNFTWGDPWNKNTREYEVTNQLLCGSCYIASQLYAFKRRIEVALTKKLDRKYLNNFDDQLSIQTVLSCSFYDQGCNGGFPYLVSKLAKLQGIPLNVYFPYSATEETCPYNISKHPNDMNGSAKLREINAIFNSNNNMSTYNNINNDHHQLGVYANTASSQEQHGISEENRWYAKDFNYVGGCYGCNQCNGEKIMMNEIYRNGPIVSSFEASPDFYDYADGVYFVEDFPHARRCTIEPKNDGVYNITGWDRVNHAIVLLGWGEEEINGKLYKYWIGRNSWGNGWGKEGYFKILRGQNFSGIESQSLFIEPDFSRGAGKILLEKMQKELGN

SMILES	% Inhibition @ 10 uM [%]
CCn1c2ccccc2c2cc(CNCc3ccc(OC)cc3OC)ccc21	3.47
Fc1ccccc1-c1nnc(CN2CCN(c3ccccn3)CC2)o1	4.47
COc1cc(/C=C2N=C(/C=C/c3ccccc3)OC/2=O)cc(OC)c1OC	5.94
Cc1cc(C)c2c(NC(=O)CN3CCOCC3)csc2n1	-1.82
O=C(Nc1ccccn1)c1cc2c(Cl)nc3ccccc3c2s1	3.6
Cc1ccc(-c2csc3nc(-c4cccs4)oc(=O)c23)cc1	3.59
COc1ccc(NC(=O)c2ccccc2O)cc1Cl	1.59
C[C@H]1CC(=O)[C@@](C)(CCC#N)CN1C	-0.261
COc1cc(C(=O)N(Cc2ccc(C)o2)C2CCS(=O)(=O)C2)cc(OC)c1OC (stereo not drawn)	-6.5
CSc1nc2sc3c(c2c(=O)n1C)CCC(C)C3 (stereo not drawn)	-3.49
CC1CCCCN1CC#CC(O)(c1ccccc1)c1ccccc1 (stereo not drawn)	1.24
Cc1cc(C)c(C(=O)N2CCOCC2)c(Cl)n1	4.01
CC(C)OCCCNC(=O)CCn1c(=O)c2cccn2c2cccnc21	-1.57
C#CCOc1c(Br)cc(/C=C2/C(=O)ON=C2C)cc1OCC	-3.96
COCCCn1c(=O)c2sccc2n2c(CCCC(=O)O)nnc12	-1.71
COc1ccc(CNC(=O)C2CCN(S(=O)(=O)N3CCC4(CC3)OCCO4)CC2)c(OC)c1	-2.99
Cc1ccc(-c2noc(CN(C(=O)c3ccc(C)cc3C)C(C)C)n2)cc1	2.23
COCCNC(=O)Cn1ncc2c(=O)oc3ccc(C)cc3c21	4.74
CC(=O)c1c(C)n(-c2ccc(N(C)C)cc2)c2ccc(O)cc12	3.61
COc1ccccc1CNC(=O)CCc1c(C)c2cc3c(C)c(C)oc3c(C)c2oc1=O	2.54
COc1ccccc1OCC(=O)Nc1ccc(S(=O)(=O)N2CCCCC2)cc1	-0.425
Cc1cc(C)c2nc3s/c(=C\c4c(C)[nH]c5ccccc45)c(=O)n3c2c1	4.88
CC(C)C[C@H](NC(=O)OCc1cccc(Oc2ccccc2)c1)C(=O)NCC#N	6.03
CCOC(=O)N1CCN(C(=O)c2ccc(C#Cc3ccccc3)cc2)CC1	2.05
CC(Cc1cccc(C(F)(F)F)c1)NCC1CCCO1 (stereo not drawn)	1.9
O=C(/C=C/c1ccc(Cl)cc1)Nc1cc2cc(Br)ccc2oc1=O	0.997

SMILES	% Inhibition @ 10 uM [%]
C=CCN(CC=C)CC(O)Cn1c(C)c(C)c2ccccc21 (stereo not drawn)	-3.39
CCN(CC)C(=O)CSc1nc(O)cc(O)n1	2.65
COCCN1C(=O)c2cccnc2C1=O	-4.69
Cc1ccc(S(=O)(=O)NC2CCCCC2)c2nsnc12	3.32
O=C(CCn1cnc2onc(-c3ccc(F)cc3)c2c1=O)Nc1ccccn1	-6.14
CC1CCc2c(sc(NC(=O)c3ccccc3)c2C#N)C1 (stereo not drawn)	-2.89
COc1cc(OC)cc(C(=O)Nc2cccc3cccnc23)c1	2.82
CCCC1CCc2c(sc(NS(=O)(=O)c3ccc(NC(C)=O)cc3)c2C(N)=O)C1 (stereo not drawn)	1.96
CCCCCCN1C(=O)C(O)=C(C(C)=O)C1c1ccc(Br)cc1 (stereo not drawn)	1.35
Nc1c(C(=O)c2ccccc2)sc2snc(SCC(=O)c3ccccc3)c12	7.93
O=C(CSc1ncnc2ccccc12)NCC(=O)c1ccccc1	-0.834
C=CCn1cc(C=C2C(=O)OC3(CCCC3)OC2=O)c2ccccc21	1.39
O=C(Cn1ncc2c3ccccc3n(Cc3ccc(F)cc3)c2c1=O)NCc1ccc2c(c1)OCO2	-1.58
O=C(C1CCCO1)N1CCN(S(=O)(=O)c2cccc3nsnc23)CC1 (stereo not drawn)	0.163
CC1CC(=O)C2=C(C1)OC(N)=C(C#N)C2c1cccc2ccccc12 (stereo not drawn)	-4.94
Cc1ccc(S(=O)(=O)Nc2ccnc(C(=O)NCc3ccc4c(c3)OCO4)c2)cc1	-6.62
OC(CNC1CCCCC1)Cn1c2ccccc2c2ccccc21 (stereo not drawn)	0.219
O=C(Nc1cccc2c1CCCC2)c1cccc([N+](=O)[O-])c1	-4.58
CCOC(=O)c1c(NC(=O)COc2c(C)ccc(C)c2C)sc(C)c1C	-5.08
O=C(NCc1ccccc1)NS(=O)(=O)c1ccccc1Cl	2.38
Cc1ccc2oc(=O)c3cc(C(=O)NCc4ccc(F)cc4)sc3c2c1	-5.62
COc1ccc(-c2cnc(NCc3ccc(C(C)C)cc3)n2C)cc1	5.5
Cc1ccc(CNC(=O)Cn2c(SCc3ccccc3F)nc3cccnc32)cc1	-1.18
CCN1C=CC=C/C1=C/c1ccc2cc(C)ccc2[n+]1CC	-1.69
O=C(c1[nH]nc2ccccc12)N1CCCCC1	-0.403
COc1cc(C2C(C#N)=C(N)Oc3[nH]nc(-c4ccc5ccccc5c4)c32)cc(OC)c1OC (stereo not drawn)	3.42

SMILES	% Inhibition @ 10 uM [%]
COc1ccc(C(=O)N2CCN(Cc3cccc(C)c3)CC2)cc1	-1.36
Cc1ccnc(NS(=O)(=O)c2ccc(NC(=O)C(F)(F)F)cc2)n1	-1.08
CCOC(=O)N1CCN(S(=O)(=O)N2CCCC(C(=O)NC(C)C)C2)CC1 (stereo not drawn)	0.387
Cc1ccc(CCNC(=O)c2ccc3c(c2)c(C)c(C)n3C)cc1	4.79
CS(=O)(=O)c1nc(-c2ccc(Br)cc2)cc(-c2ccccc2)c1C#N	-3.75
CCCC(=O)C1=C(N(C)c2ccccc2)CC(C)(C)CC1=O	2.45
CCO/C(O)=C1\C(C)=Nc2nnnn2C1c1cccnc1 (stereo not drawn)	1.18
COc1ccc(S(=O)(=O)Nc2ccc(Nc3ccccc3)cc2)cc1	-2.09
COc1ccc(-c2c(Cl)nc(NCc3ccc4c(c3)OCO4)c(=O)n2-c2ccccc2)cc1OC	-3.77
Cc1ccc2oc(-c3ccccc3)c(CN3CCOCC3)c(=O)c2c1	-5.4
O=S(=O)(c1ccc(Br)c2ccccc12)N1CCN(Cc2ccccc2)CC1	-6.94
O=[N+]([O-])c1ccc(/N=C/C=C(\O)c2ccc(Br)cc2)cc1	-2
O=C(C1=C(O)C(=O)N(CC2CCCO2)C1c1ccc(Cl)cc1)c1ccccc1 (stereo not drawn)	2.64
COc1cc(C2CC(=O)NC3=C2C(=O)CCC3)c(OC)cc1Br (stereo not drawn)	0.8
O=C(O)c1cc(-c2ccccc2F)nc2ccc3ccccc3c12	19
Cc1cccc(CNc2nc3nc(C)cc(O)n3n2)c1	-0.671
Clc1ccc(-c2cnc3nonc3n2)cc1	-1.11
Fc1ccc(CSc2nc3ccncc3[nH]2)c(Cl)c1	1.03
COc1cc(C)c(CN2CCCCC2CO)cc1C (stereo not drawn)	0.273
O=c1[nH]c(O)c(C2NCCc3ccccc32)c(=O)n1-c1cccc(F)c1 (stereo not drawn)	9.97
Cc1c2cnn(CC(=O)NCc3ccco3)c(=O)c2c(C)n1Cc1ccc(Cl)cc1	-0.447
CCN(CCN(C)C)Cc1ccc(NC(C)=O)cc1	-4.04
COc1cc(CNCCO)cc(Cl)c1OCc1ccccc1	1.94
COC(=O)c1cc2occc2n1Cc1nc(-c2ccccc2Cl)oc1C	-7.13
Oc1nc(O)c(-c2ccccc2)c(O)n1	2.36
CCOc1cc2c(cc1OCC)C(c1ccc(OC)c(C)c1)NCC2 (stereo not drawn)	-8.41

SMILES	% Inhibition @ 10 uM [%]
COc1ccccc1CN(CCCN(C)C)CCCN(C)C	-0.0494
O=C(c1ccc(-c2ccccc2)cc1)N(CC1CC1)CC1CCCO1 (stereo not drawn)	0.13
O=C(NC1CCCc2ccccc21)c1cc(C2CC2)[nH]n1 (stereo not drawn)	-0.537
C=CCN1C(=O)/C(=C/Nc2cccnc2Cl)C(=O)N(CCCC)C1=O	4.01
COc1cc2c(cc1OC)C(COc1cc(C)cc(C)c1)N(C(=O)c1ccco1)CC2 (stereo not drawn)	2.24
CSc1nc(N)nc(SCC(=O)Nc2nc(C)cs2)c1C#N	4.97
COc1ccc(C(=O)N/C(=C\c2ccc3c(c2)OCO3)C(=O)N2CCCCC2)cc1	4.28
Cc1ccc(-n2nnnc2SCC(=O)Nc2nn(-c3ccccc3)nc2C(N)=O)c(C)c1	-2.63
O=C(CSc1cn(CC(=O)N2CCOCC2)c2ccccc12)NC1CCCC1	2.46
Cc1nc2c([nH]1)sc1ccccc12	1.12
O=C(O)c1cc(S(=O)(=O)Nc2cccc(Cl)c2)ccc1Cl	-3.23
O=C(CSc1nc2cccnc2[nH]1)NCc1nc2ccccc2[nH]1	1.63
COCCNC(=O)/C(C#N)=C/c1c(Oc2cc(C)ccc2C(C)C)nc2ccccn2c1=O	-7.04
Cc1c(/C=C/C(=O)O)c(=O)n(Cc2ccccc2)c(=O)n1Cc1ccccc1	8.27
O=C(/C=C/c1ccccc1)c1ccc2c(c1)OCCCCO2	-0.711
CCOC(=O)c1nc(O)c2ccccc2c1O	2.26
COCCNc1ncnc2onc(-c3cccc(Cl)c3)c12	-5.76
Cc1csc(NC(=O)c2cc3c(s2)-c2ccccc2OC3)n1	1.89
CCOC(=O)N1CCC(NCCc2cccc(Cl)c2)CC1	-1.5
COc1ccc(S(=O)(=O)Nc2ccc(CC#N)cc2)cc1OC	-4.7
Cc1cc(C)n(CC(O)Cn2c3ccc(Cl)cc3c3cc(Cl)ccc32)n1 (stereo not drawn)	2.58
Cc1cccc(CCNC(=O)C(NS(=O)(=O)c2cccc3nsnc23)C(C)C)c1 (stereo not drawn)	-0.465
CCOc1nc(-c2ccccc2)ccc1-c1noc(-c2ccc(OC)c(OC)c2)n1	-1.33
CCCCN(C)Cc1ccc(O)c([N+](=O)[O-])c1	-2.95
